Laboratory results from the RNAGym collection of RNA variant scans (doi:10.1093/nar/gkz1192).
Read counts are not given, so values of variants with three or more changes are uncertain.

B1: CPEB3 Ribozyme (parent)
chain: UAACAGGGGGCCACAGCAGAAGCGUUCACGUCGCAGCCCCUGUCAGAUUCUGGUGAAUCUGCGAAUUCUGCUGUAUAUCUC

Variants of: B1
Experiment: self-cleavage, relative activity (ratio to wild type); higher = more cleavage; in vitro, sequencing
How it was run: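 After error-prone PCR and barcoding, CPEB3 ribozyme mutant libraries were transcribed with T7 RNA polymerase at 37°C for 5 hours, then given 15 min with DNase I before an EDTA stop, and they cleaved during both steps. Reverse transcription with template switching preceded Illumina sequencing. Relative activity divides a variant's cleaved/total read fraction by the unmutated ribozyme's. At least 5 reads were required per variant, and three batches were averaged.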

Variant	self-cleavage
A3G C11U A28U A45U G73C A77U	0.46
A3G C11U A35C G73C A77U	0.97
A3G C11U U31C	0.54
A3G C12A G22A	0.4
A3G C12A U49C U78C	0.24
A3G C12G A35G U43C A64G	0.05
A3G C12U A20U U49C U69C U80C	0
A3G C12U A35U A57C	0.26
A3G C12U U26C C32U C71U U80G	0.07
A3G C12U U41C U43C	0.5
A3G C12U U76C	1.14
A3G C14A A18U U25C U51A U69C	0.06
A3G C14A A20G U31C A64G	0.12
A3G C14G U31C U41C U69A	0.41
A3G C14G U41C A57G U69A	0.29
A3G C14U A18U U25C A45U U74C U80C	0.06
A3G C14U G16A U26C U58C U78C U80C	0.07
A3G C17A A47G U51A U58C	0.2
A3G C17G U25C U26A U51C U66G	0.08
A3G C23G G33A C38U U43C U76C	0.11
A3G C23G U26C U78G	0.06
A3G C23G U72C	0.15
A3G C23U U58G	0.12
A3G C27A A35G U67A	0.39

Variant	self-cleavage
A3G C29G U51C	0.14
A3G C29U U43C U54G A65U A75G U80A	0.05
A3G C32U U66C U80C	0.32
A3G C34G A56G U69C G73A U74C U80C	0.05
A3G C34U U43G	0.11
A3G C38U A45G U49C U67C A77C	0.12
A3G C38U A47G	0.88
A3G C38U A56G U74C U76A	0.44
A3G C38U U67A U78A	0.47
A3G C39A U41A A56G U78C	0.32
A3G C39A U54A U72C	0.14
A3G C39U U72A	1.05
A3G C40A U49C A64G G70A U76A	0.14
A3G C40A U58C U69C U72C	0.34
A3G C40A U72G U80C	0.17
A3G C40U A45G U67C	0.24
A3G C40U A77C	0.63
A3G C44U A64U	0.41
A3G C62A U72A U78C	0.32
A3G G6A A15U A18G A45G A47C	0.1
A3G G6A A15U A47G U48A U60C A64U	0.05
A3G G6A A18G A56G U66C	0.08
A3G G6A A20G U26C U58C	0.07
A3G G6A A28U U31C	0.22

Variant	self-cleavage
A3G G6A C11G G22A A45G U49C	0.07
A3G G6A C12G A28G	0.34
A3G G6A C12G U43C A47G U49A	0.07
A3G G6C U25A U31A C34A U41A	0.35
A3G G6U A21G	0.29
A3G G6U G7U G9U A13G G33A	0.12
A3G G6U U25C U43A A65G	0.28
A3G G6U U49A	0.14
A3G G7A A13U A64G	0.27
A3G G7A A13U C29U U41G G63A U78C	0.05
A3G G7A A21G A35U A64G	0.05
A3G G7A A28G U66C	0.08
A3G G7A A45G U49C U51A G52C	0.07
A3G G7A C37G A45U A47U	0.06
A3G G7C A15G A21G A45G U72C A77U	0
A3G G7C G19U U72A U78A	0.28
A3G G7U A20G G53C A57G	0.41
A3G G7U A45G U58A U76C	0.08
A3G G7U A77G	0.46
A3G G7U U51A A56G U60G	0.15
A3G G8A G63U A65G U74C	0.31
A3G G8A U43C G63A U69G	0.18
A3G G8C U26A U49C G53U U80C	0.74
A3G G8U A20U A45G	0.33

Variant	self-cleavage
A3G G8U A57G U72A	0.08
A3G G8U U72C U78C	0.11
A3G G9A A15G U67A A77U	0.12
A3G G9A A21G A47G U72C	0.02
A3G G9A A21G U74C	0.86
A3G G9A U26A A57G U60C	0.35
A3G G9A U72A	0.31
A3G G9U A15G U41G U43C U76A	0.13
A3G G9U A20G	0.37
A3G G9U A35G U41C A45G	1
A3G G9U A56G	0.28
A3G G9U C12U A47U	0.33
A3G G9U C38A A45U	0.31
A3G G9U G24A A28G U60A U67C U69C	0.07
A3G G9U U74C	0
A3G G10A A13G A35G U48C C79A	0.61
A3G G10A A20G U26A G33U U48C U58C	0.06
A3G G10A U25C U41C U49A	0.08
A3G G10C A15U U48C A64U	0.13
A3G G10C A21G A47G U49C U51A	0.05
A3G G10C C27U U66C	0.34
A3G G16A U51A U66C	0.13
A3G G16C C38U U41C	0.08
A3G G16C U25A G33A A64G	0.11

Variant	self-cleavage
A3G G16U A28G U43A	0.12
A3G G16U A28G U80C	0.63
A3G G19A A20U A45U	0.14
A3G G19A U31G U54A U72C	0.11
A3G G19A U54C U72A U76C	0.24
A3G G19A U80A	0.13
A3G G19C U48C	0.37
A3G G19U G33C U72C	0.41
A3G G19U U41A U54A	0.09
A3G G19U U54C	0.36
A3G G22A A77G	0.36
A3G G22A G61A U76A U78A	0.05
A3G G22A U25C A35G C62U U74A	0.1
A3G G22A U25C U43A U58C U74A	0.08
A3G G22C U48C U51C U76A	0.08
A3G G22U A57G U72C	0.06
A3G G24A A35G U43C	0.09
A3G G24A A64G	0.35
A3G G24A G36U C38A A45G	0.08
A3G G24A U58G C71A	0.05
A3G G24U G46C U48C U60C U74A	0.11
A3G G24U U31C A45U U51A U78G	0.25
A3G G30A U54A A56U C59U	0.2
A3G G30C U41C	0.27

Variant	self-cleavage
A3G G30U U41C U60C	0.16
A3G G33A A35G U60A	0.2
A3G G33C A75G	0.23
A3G G33U U49C A57G	0.09
A3G G36A U51A A56G U66C	0.33
A3G G42A A45U	0.57
A3G G42A U67C	0.11
A3G G42U A64G	0.48
A3G G52U U69A	0.59
A3G U25A C38A U41C G52C	0.16
A3G U25C A35G C38A U49C U60C	0.07
A3G U25C A35G U60C	0.61
A3G U25C A45G U60C U72C G73U	0.13
A3G U25C A45G U67G	0.24
A3G U25C A47G U60G U66C A77U	0.14
A3G U25C A64G	0.25
A3G U25C A75G	0.47
A3G U25C G52A	0.15
A3G U25C U31G G33C A57G U60A U72C	0.35
A3G U25C U41C G52A A56U U80C	0.37
A3G U25C U51C U67C	0.27
A3G U25C U69A	0.19
A3G U25G U41C	0.33
A3G U25G U41C A64G	0.28

Variant	self-cleavage
A3G U26A C40U U60C A77C	0.17
A3G U26A G33A A35G U49A C50U U51C	0.09
A3G U26A U31C C38A U58G G61A	0.08
A3G U26A U51A U80C	0.81
A3G U26C A35G U48C U49C U60A G61A	0.31
A3G U26C A56G	0.4
A3G U26C C40U	0.44
A3G U26C G30C	0.49
A3G U26C G33A U58C	0.16
A3G U26C G61A	0.85
A3G U26C U31A	0.36
A3G U26C U31C C62U	0.33
A3G U26C U41A A57G U78C	0.21
A3G U26C U41A U51A U80C	0.21
A3G U26C U41C U43A U67A	0.45
A3G U26C U58C	0.45
A3G U26C U66C U74C U80C	0.03
A3G U26C U72A U78C U80C	0.64
A3G U26G C29G U72G	0.24
A3G U26G U69C	0.13
A3G U31A A35U G36C A64U U74C A75C	0.07
A3G U31A A45U	0.44
A3G U31A C32U	0.65
